We go through five molecules from paper PMC9976968.

Chains of the proteins cited; added tags and fusions are not shown.
UniProt Q7TPR4: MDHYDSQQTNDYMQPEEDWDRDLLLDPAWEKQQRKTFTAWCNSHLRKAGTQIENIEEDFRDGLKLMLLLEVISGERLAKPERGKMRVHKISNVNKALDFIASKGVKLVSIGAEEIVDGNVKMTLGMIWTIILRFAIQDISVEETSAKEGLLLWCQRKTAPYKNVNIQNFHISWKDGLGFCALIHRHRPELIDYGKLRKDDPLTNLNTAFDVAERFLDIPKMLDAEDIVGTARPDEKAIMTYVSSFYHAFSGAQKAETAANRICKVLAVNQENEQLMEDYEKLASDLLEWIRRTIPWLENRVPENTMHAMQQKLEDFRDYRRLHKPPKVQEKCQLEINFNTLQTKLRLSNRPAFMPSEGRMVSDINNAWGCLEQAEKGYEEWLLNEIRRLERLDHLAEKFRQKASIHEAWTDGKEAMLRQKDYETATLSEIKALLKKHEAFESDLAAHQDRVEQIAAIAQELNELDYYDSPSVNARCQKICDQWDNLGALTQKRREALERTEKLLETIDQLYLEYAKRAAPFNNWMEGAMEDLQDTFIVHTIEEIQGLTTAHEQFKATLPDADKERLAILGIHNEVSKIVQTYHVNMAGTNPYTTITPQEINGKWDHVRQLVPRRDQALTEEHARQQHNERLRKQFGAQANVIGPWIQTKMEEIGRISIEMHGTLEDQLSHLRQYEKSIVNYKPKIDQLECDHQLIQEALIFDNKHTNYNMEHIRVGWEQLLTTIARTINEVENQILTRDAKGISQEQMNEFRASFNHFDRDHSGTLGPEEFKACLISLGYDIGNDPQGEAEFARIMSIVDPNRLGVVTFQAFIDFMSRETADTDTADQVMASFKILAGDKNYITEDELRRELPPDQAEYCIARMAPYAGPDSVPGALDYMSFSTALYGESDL
UniProt Q9D9L5: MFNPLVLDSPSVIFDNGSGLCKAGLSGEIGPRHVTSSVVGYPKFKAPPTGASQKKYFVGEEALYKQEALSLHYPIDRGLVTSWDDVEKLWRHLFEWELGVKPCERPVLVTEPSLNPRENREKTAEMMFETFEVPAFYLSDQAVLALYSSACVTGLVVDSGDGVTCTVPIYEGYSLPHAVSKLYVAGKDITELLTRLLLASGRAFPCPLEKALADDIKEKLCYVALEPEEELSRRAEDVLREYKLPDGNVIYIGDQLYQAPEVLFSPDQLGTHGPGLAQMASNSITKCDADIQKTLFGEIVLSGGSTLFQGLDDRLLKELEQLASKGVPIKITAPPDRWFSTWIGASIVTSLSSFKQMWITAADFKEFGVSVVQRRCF
UniProt Q64331: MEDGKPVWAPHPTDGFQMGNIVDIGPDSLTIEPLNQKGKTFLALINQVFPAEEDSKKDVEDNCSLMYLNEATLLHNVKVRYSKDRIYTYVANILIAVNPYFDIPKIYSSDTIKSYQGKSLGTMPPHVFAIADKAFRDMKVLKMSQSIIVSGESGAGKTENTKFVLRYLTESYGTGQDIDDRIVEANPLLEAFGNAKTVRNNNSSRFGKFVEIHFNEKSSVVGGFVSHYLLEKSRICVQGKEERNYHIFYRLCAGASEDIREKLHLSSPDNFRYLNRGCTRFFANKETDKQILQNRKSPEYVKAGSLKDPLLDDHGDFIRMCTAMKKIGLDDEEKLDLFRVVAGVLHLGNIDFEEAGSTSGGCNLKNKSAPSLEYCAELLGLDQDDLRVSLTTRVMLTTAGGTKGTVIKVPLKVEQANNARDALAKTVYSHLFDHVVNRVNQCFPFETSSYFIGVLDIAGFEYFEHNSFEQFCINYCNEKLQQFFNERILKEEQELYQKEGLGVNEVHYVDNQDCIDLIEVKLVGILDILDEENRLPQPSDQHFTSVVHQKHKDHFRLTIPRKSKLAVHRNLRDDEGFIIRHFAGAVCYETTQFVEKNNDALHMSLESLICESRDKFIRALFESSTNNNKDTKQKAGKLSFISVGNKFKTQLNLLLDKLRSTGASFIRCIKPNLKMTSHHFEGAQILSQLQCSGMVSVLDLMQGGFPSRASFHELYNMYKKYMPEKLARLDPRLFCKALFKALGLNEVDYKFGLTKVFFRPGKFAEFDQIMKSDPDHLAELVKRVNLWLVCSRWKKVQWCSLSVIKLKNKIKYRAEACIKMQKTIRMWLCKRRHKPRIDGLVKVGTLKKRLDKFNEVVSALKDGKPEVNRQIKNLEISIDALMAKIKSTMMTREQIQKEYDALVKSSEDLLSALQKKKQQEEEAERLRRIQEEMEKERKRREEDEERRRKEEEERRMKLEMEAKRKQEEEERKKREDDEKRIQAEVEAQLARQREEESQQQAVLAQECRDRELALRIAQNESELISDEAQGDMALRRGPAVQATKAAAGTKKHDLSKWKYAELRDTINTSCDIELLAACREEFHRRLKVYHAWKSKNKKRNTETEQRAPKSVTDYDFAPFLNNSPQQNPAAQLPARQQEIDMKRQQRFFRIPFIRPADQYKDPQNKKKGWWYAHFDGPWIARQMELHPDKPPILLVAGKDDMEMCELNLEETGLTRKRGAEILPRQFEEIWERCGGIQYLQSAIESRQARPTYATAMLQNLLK

T1: YFP-6His-ACTL7A fusion protein (human actin-like 7A) (human) (UniProt Q9Y615)
T1 sequence: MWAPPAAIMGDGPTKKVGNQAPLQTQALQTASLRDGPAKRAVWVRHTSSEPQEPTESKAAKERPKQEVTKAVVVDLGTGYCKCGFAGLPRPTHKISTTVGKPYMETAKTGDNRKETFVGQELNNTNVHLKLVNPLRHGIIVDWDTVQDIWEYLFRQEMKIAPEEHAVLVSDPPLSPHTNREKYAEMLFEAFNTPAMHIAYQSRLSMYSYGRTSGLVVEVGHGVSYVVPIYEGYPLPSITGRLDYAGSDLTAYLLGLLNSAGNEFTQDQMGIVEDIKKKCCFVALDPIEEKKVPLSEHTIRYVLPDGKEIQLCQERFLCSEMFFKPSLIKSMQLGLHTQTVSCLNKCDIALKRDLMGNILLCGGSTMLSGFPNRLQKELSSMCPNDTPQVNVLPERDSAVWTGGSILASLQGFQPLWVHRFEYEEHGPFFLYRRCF

B1: profilin 4 (PFN4) (protein, UniProt Q9D6I3 1-129)
chain: MSHLQNLLLDTLLGTKHVDSAALIKLQEKTLCVTSPGFSVMPSDVRTLLNGFAKNPLLTRREGLYFKEKDYKCVRADDYSLYAKNENTGVVVVKTNMYLVVATYTAGMYPSVCVEATEKLGEYLRKKGN
B2: SPACA1 (protein, UniProt Q9DA48 29-305)
chain: SNVTSSGGGVQEPAVAREGESESESESEEEAENEGEVPESETTAEADAEEEVQNRTIVKEVEFGMCTVTCGVGIREVILTNGCPGGESKCVVRVEECRGPVDCGWGKPISENLDSARLSCVHISPENRFKYVWKLLKPDQQPVILTNDSAVLEITREIRPLAFECDTLDNNEMVASVKFTVYTTNELQMRRSSRPDTDAVLVFVLTIGVIICIFVIFVLIFIIINWAAVKSFWGSKTSATEIQSELSSMRYKDSTSLDQSPTDIPVHEDDALSEWNE

Results are given in words; binding and its absence hold for the method and conditions named. In cells and extracts the contact can be indirect. Some results given as binding are weak or reduced against the parent protein; the word gives no strength. Where a sequence is shown, tags or fusion partners need not be part of it.

The target in the assay is T1, YFP-6His-ACTL7A fusion protein (human actin-like 7A) (human). Briefly: co-IP; soluble fraction of YFP-6His-ACTL7A-transfected HEK293F lysate coincubated 1 h at room temperature with soluble fraction of murine testis lysate; agarose-conjugated GFP nanobody beads overnight at 4°C; low salt buffer (10 mM Tris-HCl, 205 µM CaCl2, 100 mM KCl, pH 7.8); eluted with 100 mM glycine pH 2.8; western blot. In general terms: Immunoblotting shows a protein as a band on a membrane.
“α-actinin (ACTN1) (from UniProt Q7TPR4 1-892)”: the binding entry is given as “binds weakly”.

As to ACTRT2 (from UniProt Q9D9L5 1-377), the binding entry is “no binding”.

In the case of “myosin 6 (MYO6) (from UniProt Q64331 1-1262)”, the binding result is given as “binds”.

Regarding B1, the binding result is “binds”.

On to B2, for which the binding result is on record as “no binding”.
